Among all 310,000 compounds or so, about 2,200 (0.71%) showed an effect of 50% or more. Effects have a minus sign here. The list shows a part of the results.
biological target: human ether-à-go-go-related gene (hERG) potassium channel (human, UniProt Q12809); assay: primary screen, population patch clamp on CHO cells stably expressing hERG
Sequence (Q12809 whole entry, looked up): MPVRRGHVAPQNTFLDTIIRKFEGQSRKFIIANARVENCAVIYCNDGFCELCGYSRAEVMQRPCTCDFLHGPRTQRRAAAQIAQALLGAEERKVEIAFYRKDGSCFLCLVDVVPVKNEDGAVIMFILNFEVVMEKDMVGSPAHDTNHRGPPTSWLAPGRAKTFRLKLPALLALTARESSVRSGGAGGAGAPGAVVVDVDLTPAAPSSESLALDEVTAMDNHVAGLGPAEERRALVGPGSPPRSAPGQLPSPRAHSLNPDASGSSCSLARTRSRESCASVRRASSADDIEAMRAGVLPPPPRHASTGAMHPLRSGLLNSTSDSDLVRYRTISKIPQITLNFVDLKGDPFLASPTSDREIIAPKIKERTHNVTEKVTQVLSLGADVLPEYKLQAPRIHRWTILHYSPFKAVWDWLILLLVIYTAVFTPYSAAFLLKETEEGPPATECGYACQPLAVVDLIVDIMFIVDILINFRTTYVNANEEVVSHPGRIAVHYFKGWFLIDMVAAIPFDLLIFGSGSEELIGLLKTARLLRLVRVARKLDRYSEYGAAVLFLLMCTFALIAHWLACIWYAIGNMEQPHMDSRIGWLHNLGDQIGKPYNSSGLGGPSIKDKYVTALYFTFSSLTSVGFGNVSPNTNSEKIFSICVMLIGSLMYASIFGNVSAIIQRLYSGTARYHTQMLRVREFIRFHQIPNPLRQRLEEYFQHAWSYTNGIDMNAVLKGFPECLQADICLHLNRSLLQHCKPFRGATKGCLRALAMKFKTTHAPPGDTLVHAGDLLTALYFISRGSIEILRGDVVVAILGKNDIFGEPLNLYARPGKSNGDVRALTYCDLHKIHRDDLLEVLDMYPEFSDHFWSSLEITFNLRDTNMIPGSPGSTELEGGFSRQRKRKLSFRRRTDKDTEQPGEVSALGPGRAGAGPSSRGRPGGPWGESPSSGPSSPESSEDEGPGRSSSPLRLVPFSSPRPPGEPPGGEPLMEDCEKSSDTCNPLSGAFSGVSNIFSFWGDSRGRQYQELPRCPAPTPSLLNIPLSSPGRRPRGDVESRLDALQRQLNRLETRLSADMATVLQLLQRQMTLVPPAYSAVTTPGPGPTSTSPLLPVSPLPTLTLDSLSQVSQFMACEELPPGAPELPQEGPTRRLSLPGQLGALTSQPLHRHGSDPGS

Row | SMILES | hERG current change (%, negative = inhibition) at 1uM
1 | COc1ccc(/C(=N/Nc2ncnc3ccccc23)C(=O)O)cc1 | 15.5%
2 | CCSc1ccc([C@@H]2[C@@H]3C(=O)N(CC)C(=O)[C@@H]3[C@]3(C(=O)OC)CCCN23)cc1.O=C(O)C(F)(F)F | 9.99%
3 | O=C(NN1C(=O)c2cc(Br)ccc2NC1c1cc(Br)cc(Br)c1O)c1ccncc1 (centres unmarked) | 11.5%
4 | CCN1CCc2c(OCC(=O)N3CCc4ccccc43)cccc2C1=O | 7.68%
5 | O=C(CC(c1ccccc1)c1ccccc1)Nc1nn[nH]n1 | 8.7%
6 | O=c1nc2n(c3cc(Cl)c(S(=O)(=O)N4CCOCC4)cc13)CCCCC2 | 18.8%
7 | Cc1nc2ccccc2c(=O)n1NC(=O)c1ccc([N+](=O)[O-])cc1 | 6.73%
8 | COc1ccc(C2C3=C(CC(C)(C)CC3=O)Nc3c2c(=O)n(C)c(=O)n3C)cc1OC (centres unmarked) | 13.1%
9 | Cc1ccc(CNC(=O)CCSCc2ccccc2F)cc1 | 1.01%
10 | Fc1cnc(N2CCc3ccccc32)nc1N1CCc2ccccc21 | 11.7%
11 | CC(C)C(=O)Nc1ccc([N+](=O)[O-])cc1Br | 12.6%
12 | CCN1CCN(S(=O)(=O)c2ccc(Cl)c(C(=O)NC3CC3)c2)CC1 | 3.89%
13 | CC(=O)Nc1ccc(-c2nc(C)c(C(C)=O)n2O)cc1 | -1.97%
14 | CN(C)c1ccc(C(=O)N/N=C/c2cc(Br)cc(Br)c2O)cc1 | 14.5%
15 | Cc1ccccc1OCCCc1c(C)n[nH]c1C.Cl | 11.1%
16 | Cc1ccc2cc(CCNC(=O)c3ccc4c(c3)OCO4)c(=O)[nH]c2c1 | 4.67%
17 | O=C(c1ccco1)N1CCN(C(=O)c2ccc(Cn3cc(Br)cn3)o2)CC1 | -0.52%
18 | COc1ccc2c(c1)CCc1c-2nc2ccccc2c1N1CCOCC1 | 4.97%
19 | O=C(NN1C(=O)c2ccccc2NC1c1ccoc1)c1ccc([N+](=O)[O-])cc1 (centres unmarked) | -3.73%
20 | CC(C)NC(=O)C(C)n1cccc1C(=O)c1ccccc1 (centres unmarked) | 6.45%
21 | COc1ccccc1C1Nc2cccc3cccc(c23)N1 | -4.5%
22 | COc1ccccc1C(=O)CSc1nnc(-c2ccco2)o1 | 9.29%
23 | CC(C)NC(=O)CSCc1cccc(Br)c1 | 13.1%

Row | SMILES | hERG current change (%, negative = inhibition) at 1uM
24 | Nc1cc2c(cc1C(=O)c1ccccc1F)OCCO2 | -0.126%
25 | CC(C)COc1ccc(C(=O)OCCN2CCOCC2)c(O)c1.Cl | 3.74%
26 | COCCCNC(=O)c1cc(C)nn1-c1ccccc1 | 2.21%
27 | O=C(Nc1ccc(Nc2ccccc2)cc1)C(Cl)Cl | -3.64%
28 | O=C(CSc1nnc(CCc2ccccc2)n1-c1ccc(Cl)cc1)NCc1ccccc1 | 12.2%
29 | O=C(CSc1nnc(Cc2ccccc2)o1)N1CCCc2ccccc21 | 8.72%
30 | C=CCNC(=O)c1ccccc1CCc1ccccc1 | 10.1%
31 | COc1ccc2c(c1)CCc1sc(NC(=O)c3ccco3)nc1-2 | 16.7%
32 | COC(=O)Oc1cncc(C(=O)O)c1 | 14.2%
33 | O=S(=O)(NC1CCN(Cc2ccccc2)CC1)c1cccc(S(=O)(=O)N2CCOCC2)c1 | -6.86%
34 | COc1ccc(CCNC(=O)COc2cccc3c2OC(C)(C)C3)cc1OC | 15.7%
35 | O=C1Cc2ccccc2C(=O)N1c1cccc(Cl)c1 | 16.6%
36 | O=C(CSc1ccccc1F)OCC(=O)N1CCN(C(=O)c2ccco2)CC1 | 3.26%
37 | CCCCOc1ccc(C(=O)NCCc2cccs2)cc1 | 9.49%
38 | COc1ccc(S(=O)(=O)NCc2ccc(C(=O)NCCCN3CCCC(C)C3)cc2)cc1 (centres unmarked) | 13.9%
39 | C=C(C(=O)c1ccccc1)C(CC(=O)c1ccccc1)c1ccccc1 (centres unmarked) | 10.8%
40 | CC(C)COc1ccc(C(=O)Nc2ncn[nH]2)cc1 | 16.5%
41 | COc1ccc(C2C(C(C)=O)=C(C)Nc3ncnn32)cc1OC (centres unmarked) | 8.18%
42 | CC(C)CCCC(C)NS(=O)(=O)Cc1ccccc1 (centres unmarked) | 10.2%
43 | CCOc1ccc(C(=O)NC2=NCCS2)cc1 | 2.56%
44 | COc1cccc(/C=C/C(=O)OCC(=O)c2c(N)n(C)c(=O)n(C)c2=O)c1 | 16.6%
45 | CC(C(=O)O)N1C(=O)CSc2ncccc21 (centres unmarked) | 11.4%
46 | Cc1ccc(/C=C(\NC(=O)c2ccccc2)C(=O)NCCN2CCOCC2)o1 | 1.36%

Row | SMILES | hERG current change (%, negative = inhibition) at 1uM
47 | COC(=O)c1sc(OC)cc1OCc1ccc(C)cc1 | 8.3%
48 | Nc1ccc2nc(SCC(=O)N3CCOCC3)sc2c1 | 15.6%
49 | O=C(NCCc1ccccc1)C1CCN(S(=O)(=O)N2CCC3(CC2)OCCO3)CC1 | 4.05%
50 | O=C(CCNS(=O)(=O)c1ccccc1)N1CCN(c2ccccc2)CC1 | 1.83%
51 | CCCNC(=O)CC(NS(=O)(=O)c1ccc(OC)cc1)c1ccco1 (centres unmarked) | 2.46%
52 | COc1ccc(C(=O)NNC(=O)c2ccncc2)cc1 | -0.999%
53 | O=C(CNS(=O)(=O)c1ccc(F)c(Cl)c1)N1CCCC1 | 1.18%
54 | Cc1[nH]c2ccc(C(=O)N3CCN(c4cccc(Cl)c4)CC3)cc2c1C | 26.6%
55 | O=[N+]([O-])c1ccc(S(=O)(=O)Nc2ccncc2)cc1 | 11.6%
56 | COc1cccc(NC(=O)c2cc([N+](=O)[O-])ccc2NCc2cccnc2)c1 | 5.13%
57 | CCN(CC)CCn1cnc2c1c(=O)[nH]c(=O)n2Cc1ccccc1.Cl | 13.4%
58 | O=S(=O)(c1ccc(NC(=S)NC2CC2)cc1)N1CCOCC1 | 11.2%
59 | Cc1ccc(NC2CCCN(C(=O)CCn3nccc3C)C2)cc1C (centres unmarked) | 8.02%
60 | CCC(=O)Nc1nnc(S(=O)(=O)N(C)Cc2ccco2)s1 | 11.9%
61 | Cc1ccc(OCC(=O)Nc2cccc(-c3nnc(-c4ccccc4)o3)c2)cc1 | 12.6%
62 | CCOC(=O)c1c(NC(=O)c2ccn(CC)n2)sc2c1CCCC2 | 1.07%
63 | O=S(=O)(/C=C/c1ccccc1)Nc1cccc(S(=O)(=O)NC2=NCCC2)c1 | 3.21%
64 | S=C(Nc1ccccc1)Nc1ccc(OCc2ccc(Cl)cc2Cl)cc1 | 13.9%
65 | COC(=O)c1ccc(-n2c(C)cc(C(=O)CCl)c2C)cc1 | 21.8%
66 | COc1ccc(CCNC(=O)c2sc3nc4n(c(=O)c3c2C)CCC4)cc1 | 12.3%
67 | Cn1c(C(=O)NCCCN2CCCCC2)cc2sccc21 | -13.7%
68 | CCCn1c(=O)[nH]c(=O)c2[nH]cnc21 | 12.4%
69 | O=C(CSc1ccc(-c2ccc3c(c2)OCO3)nn1)Nc1nccs1 | 9.09%

Row | SMILES | hERG current change (%, negative = inhibition) at 1uM
70 | O=C(CN1CCN(c2ccccc2)CC1)Nc1ccc(-n2cnnn2)cc1 | 6.89%
71 | O=C(Nc1ccc(N2CCOCC2)cc1)c1ccc(Cl)nc1 | 8.92%
72 | CC(C)Sc1nc2ccc(Br)cc2[nH]1 | 2.07%
73 | O=C(C1CCCN(S(=O)(=O)c2cnc[nH]2)C1)N1CC(=O)N(CCc2ccccc2)C(=O)C1 (centres unmarked) | 5.42%
74 | CC1CCCN(CC(=O)Nc2ccc(S(=O)(=O)NC3CCCCC3)cc2)C1 (centres unmarked) | -1.25%
75 | N#Cc1ccc(OCC(=O)N2CCN(c3ccc(C(F)(F)F)cn3)CC2)cc1 | -8.68%
76 | CC(=O)N1CC(C)Sc2ccc(S(=O)(=O)N3CCCCC3)cc21 (centres unmarked) | 8.08%
77 | O=C(CO/N=C/c1ccccc1OC(F)F)NCc1cccs1 | 9.33%
78 | O=C(NCCCc1ccccc1)c1cc(COc2c(F)cccc2F)on1 | 0.146%
79 | CCOC(=O)c1sc2nc(C3CC3)cc(-c3ccc(OC)cc3)c2c1N | 13.1%
80 | CCOc1cc(N2CCOCC2)c(OCC)cc1NC(=O)CN1CCc2ccccc2C1 | 17.1%
81 | Cc1ccc(OCCn2c(=S)[nH]c3c(N)ncnc32)cc1 | 19.8%
82 | COc1ccc(N(CC(=O)N/N=C/c2ccc(OC)cc2OC)S(=O)(=O)c2ccccc2)cc1 | 16.1%
83 | Cn1c(CC(=O)Nc2ccccc2)n[nH]c1=S | 7.8%
84 | CCn1c(SCC(=O)Nc2ccccc2F)nnc1-c1cnccn1 | 14.8%
85 | CCCOc1ccc(C(F)(F)F)cc1NC(=O)C1CC(=O)N(Cc2ccco2)C1 (centres unmarked) | -4.68%
86 | Cc1cc2c3c([nH]c2cc1S(=O)(=O)N1CCC2(CC1)OCCO2)CC(C)(C)CC3=O | 6.46%
87 | O=C(O)C(Cl)(Cl)Cl | 3.43%
88 | O=S(=O)(c1ccc(Br)cc1)N1CCCN(Cc2ccccc2F)CC1 | 3.97%
89 | CN1CCN(CCCNC(=O)Cn2nc(-c3ccccc3)ccc2=O)CC1 | 8.09%
90 | CCOC(=O)C1CCN(CCC(=O)Nc2ccccc2Cl)CC1.Cl | 0.369%
91 | C[C@@H](C(=O)Nc1nc2ccc(F)cc2s1)N1C(=O)C2CC=CCC2C1=O (some centres unmarked) | 4.44%
92 | COc1cc(C(=O)O)cc(OC)c1OCc1cc(C(=O)O)oc1C | 15.4%
